Reference: the supplement of paper PMC11417369
± gives the standard deviation of the averaged measurements. Some of the results follow.

test system: PfAP2-EXP AP2 domain (GST-tagged); assay: gcPBM binding intensity (ln(normalized median fluorescence intensity)); higher = stronger DNA binding
Procedure, shortened: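 GST-tagged P. falciparum DNA-binding domains produced in E. coli were incubated for 1 h on an Agilent 4 × 180k array of primer-extended double-stranded 36-bp intergenic genomic probes with negative controls. Binding intensity is the highest Masliner-normalised natural-log median intensity across replicate spots of either probe orientation, with bound protein detected by Alexa488 anti-GST antibody at 488 nm.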

| Sequence | gcPBM binding intensity (ln) |
| --- | --- |
| ATAAAATAAAATAAAAGTACATAAATATATATATAT [XGTACX_site6110] | 9.83 ± 0.28 |
| ATAATTAATCCAAAATGTACTTACATTTTATATGAA [XGTACX_site8888] | 8.35 ± 0.44 |
| AAATAATTCATATGTTGTACAGTAATTAAATTTTCT [XGTACX_site6343] | 8.48 ± 0.33 |
| ATAAGGATCAGACACAAACACACATATATATATATA [CACACA_site558] | 10.1 ± 0.41 |
| CGAATAAATATATGTAGTACATGTTGTAGATAATTT [XGTACX_site1218] | 8.79 ± 0.32 |
| TCTTTCTATTAAACATGTACTTGTCTAAAGACATAA [XGTACX_site8564] | 8.59 ± 0.38 |
| TATATATATTTAAATTGTACATATATTATTCATATG [XGTACX_site911] | 8.52 ± 0.33 |
| AATAATATATATTACTGTACTAATATAAGGGACATC [XGTACX_site3744] | 8.98 ± 0.31 |
| ATTTATGAAAAAAATACATGCATGTCCATATAAATT [TGCATGCA_site505] | 9.2 ± 0.3 |
| TTGTCAAAAATTACACACATAAATGAATAAATAAAT [XGTACX_negctrl_site541] | 8.42 ± 0.54 |
| TTATTTTCTACAAATTGTACATATTTTTTACTACTC [XGTACX_site1394] | 8.91 ± 0.45 |
| TAATATATATGTATGGCACACACGGATAAATATATA [CACACA_site930] | 8.8 ± 0.44 |
| AAAAAAAATATGAAAACACACATATATAAATAAATA [CACACA_site113] | 8.54 ± 0.36 |
| CATGCCTTTAAAAAGGTGCAAACATTTTCACAAACA | 8.95 ± 0.43 |
| AACAAAATAAGACACACACACAAATGTACCTATATA [CACACA_site7189] | 8.49 ± 0.44 |
| TCTTTTTTAAATAAAAGTACAAAAAAAAATAAAAAA [XGTACX_site2670] | 8.59 ± 0.48 |
| ATGTAATTCTTTTACTTTTTTTTTTTTTTTTTTTTT [CACACA_negctrl_site979] | 8.77 ± 0.19 |
| CAAACAAATATATGTTGTACTTATTATATATACATA [XGTACX_site2998] | 8.38 ± 0.33 |
| TTATCATATGTATGCATACACACAAAAAATTATATA [CACACA_site397] | 8.6 ± 0.45 |
| ATAAATGAGCCATATTAAATCCGTTACACGGGTGTG [CACACA_negctrl_site1368] | 8.12 ± 0.39 |
| AAATTATTTTGTTATCATTATATATAGATTGAATAT [XGTACX_negctrl_site165] | 8.38 ± 0.62 |
| AACGGGTAATGCACAAAAAAAAAAAAATAAAATAAA [TGCATGCA_negctrl_site474] | 8.6 ± 0.4 |
| TTCTTTTAAATTAGCTGTACGGTTTTCTACATGCAT [XGTACX_site356] | 9.51 ± 0.28 |

| Sequence | gcPBM binding intensity (ln) |
| --- | --- |
| TACAATATATTTATAGTGCATATTACTTTTAACTTT | 8.22 |
| TCGTAATAATATAAATGTACTTTATTAATTAAAAGA [XGTACX_site3416] | 8.2 ± 0.4 |
| ATAACAAAAATCCTTGTGCACTATTTTAATAGAGTC | 9.06 ± 0.38 |
| ACATTGCACCCGTGCACACATAGAAAAATAATTCTT [CACACA_site409] | 8.52 ± 0.15 |
| GTAGTCCAAAAAAAGCGTACACAGAAAAAAAAAAAA [XGTACX_site4273] | 8.63 ± 0.41 |
| CATTATGATTAAATATGTACATATTATTATATAAAT [XGTACX_site2477] | 8.41 ± 0.42 |
| TACATCTTACTACTTATAATATAATATAGTATGAAT [TGCATGCA_negctrl_site8] | 8.21 ± 0.43 |
| ATATAATTTATGTGCACACACTCCTATTTTTAGCTT [CACACA_site50] | 9.07 ± 0.16 |
| AAAAAGTAAAAGAAAGCACACACACCGGTATATATG [CACACA_site9281] | 8.55 ± 0.61 |
| AAAAAAAATTTTATCTGTACACATTTTTTTCTTTTT [XGTACX_site4229] | 8.65 ± 0.49 |
| ATTTATTTATATAATACACACAAATATCTTAATGAA [CACACA_site6064] | 8.26 ± 0.41 |
| ATTTTTTCTAATGGGTGTACTGAAACGTATTTTATT [XGTACX_site6573] | 8.85 ± 0.4 |
| TTATTTTTTCTTTTTTTTCTTACCACAAAAATGGAT [CACACA_negctrl_site362] | 8.62 ± 0.65 |
| ATTTGTAATTATTAAACACACACAAAATATATATAA [CACACA_site8804] | 8.62 ± 0.52 |
| AAAAAAAAAAAAAACACACACATATCTATAATATAT [CACACA_site7481] | 8.37 ± 0.41 |
| TTGTGATTATATAATCGTACATAATTTTAATCACAC [XGTACX_site398] | 8.45 ± 0.29 |
| CAAAACAAAGTTGCCGCACACAGATACGCACCCAAG [CACACA_site3455] | 8.92 ± 0.52 |
| GAATATAAACATATTACACACATCTATATGTACTTT [CACACA_site8582] | 8.44 ± 0.36 |
| GTAATATTATAATATACACACATAGAATATAAATAT [CACACA_site6333] | 8.7 ± 0.42 |
| AAAATACACCAACACACACACATATATATATATATT [CACACA_site4149] | 8.6 ± 0.38 |
| TTCAAGATTTATTATACACACATATTAATATATATA [CACACA_site573] | 8.48 ± 0.42 |
| AGAATAAAAAGGAACACACACACACGCATATAAATA [CACACA_site7659] | 9.01 ± 0.55 |
| TTTTATGATAATTTTGCACACACTTAGGAAAAATTA [CACACA_site1556] | 8.52 ± 0.23 |

| Sequence | gcPBM binding intensity (ln) |
| --- | --- |
| TTTATTTAATTCATTGCATGTAATTTTTGTGTCCAC [TGCATGCA_site677] | 9.13 ± 0.099 |
| TTAAAAAAAAATGGCACACATTTTAATTTTATGTTT [CACACA_site5035] | 8 ± 0.35 |
| AAATTAAAATAATAATTCTACAAATTAATTTATCAT [XGTACX_negctrl_site44] | 7.97 ± 0.49 |
| TATCAAATGTATATATGTACTTATATTTTTTTTATA [XGTACX_site1501] | 8.39 ± 0.33 |
| AATATATTTTCCTGCAAACACACATATAAATGTGTA [CACACA_site532] | 8.51 ± 0.47 |
| TATATTACAAAAAGTACACACATAAATAAATACATA [CACACA_site975] | 8.85 ± 0.39 |
| ATGCTCAAAAGATATGCATGTACAAATATATGAAAT [TGCATGCA_site592] | 9.01 ± 0.45 |
| GATATAATGTGTTTGGTATTCTTGATAGATAGTTTT [CACACA_negctrl_site1711] | 8.6 ± 0.49 |
| ACATACATACACCCACGTACGTACCGAAACACCACC [XGTACX_site1212] | 9.11 ± 0.35 |
| ATGATGTCTTTATATTGTACATATATGAAGACGTTA [XGTACX_site7751] | 8.6 ± 0.35 |
| TTTAAATAAAATATTACACACTTAGAAAAATATATA [CACACA_site3663] | 8.38 ± 0.28 |
| TTTCTTTTTTTTTTTGTATATTAAATCTAAAAAGGA [TGCATGCA_negctrl_site431] | 8.18 ± 0.39 |
| ACTTCAAAAATAAACTGTACGTAAAAAAAAAAAAAA [XGTACX_site795] | 8.53 ± 0.56 |
| TTTCGTAAAATGAAATGTACTCAAAAGTAAATATAA [XGTACX_site214] | 8.4 ± 0.29 |
| AATAATCATAGTTCTACACACCTATATTGCAAAAAA [CACACA_site867] | 8.63 ± 0.43 |
| TGAGAGAGAAACGTAGTGCATAAAATCAAATTTAGA [GTGCAC_site9737] | 9.04 ± 0.43 |
| GGTTCATATATTAACACACACATACATATTATATAT [CACACA_site2937] | 8.78 ± 0.39 |
| TAATATGTATTTACAAGTACTAACAAAATATTAAAA [XGTACX_site3379] | 8.35 ± 0.4 |
| TACAAAAATAAATGTTGTACTATTATTTATTTCGAT [XGTACX_site1048] | 8.39 ± 0.38 |
| TTATAAAAAATTTTAGTGCATATATGATTTATATAT [GTGCAC_site9831] | 8.47 ± 0.14 |
| TTCATTAAATAGAACAAAATAATAATATAACAACAA [GTGCAC_negctrl_site116] | 8.74 ± 0.39 |
| TTAAAGATATACAAAAGTACTTTTTTTTTCGTCATT [XGTACX_site384] | 8.32 ± 0.46 |
| CCATATCTTTTTTGCACACACTACAATAAAACAAAA [CACACA_site4995] | 9.035 ± 0.064 |

| Sequence | gcPBM binding intensity (ln) |
| --- | --- |
| TGATACTTATGATAAATACACACTTGAAATTAAGGA [CACACA_site1152] | 8.41 ± 0.5 |
| ATGATATACGTAAACACACAAATAAAAAAAATTTAT [CACACA_site7544] | 8.43 ± 0.56 |
| TATATAGCATATTTCACACACACATAATGAATATTA [CACACA_site3546] | 8.49 ± 0.33 |
| TTAAAAAGAAAGTTCACACACATATAGATGACGGAA [CACACA_site7268] | 8.83 ± 0.4 |
| TTTTTTAGTTTTTAGTGTACATAAATAAATAAATAA [XGTACX_site2843] | 8.46 ± 0.2 |
| CACCCATAAATATACACACGCACAACACAAAATAAA [CACACA_site2903] | 8.8 ± 0.49 |
| ATATATATATATACATGTACAAATGTATAACAAATG [XGTACX_site145] | 9.98 ± 0.35 |
| TTTTTTTACAACATTACACACAAATATTCTGTGTTA [CACACA_site5957] | 8.72 ± 0.44 |
| AACATTTTAAAACAGACACACACCAAAAAAAAAAAA [CACACA_site257] | 8.45 ± 0.55 |
| ATATTACAACATTTTATACACACGTGATTATTAATT [CACACA_site2877] | 8.78 ± 0.4 |
| AGAAAATTAAAAAGAACACACAAATATATATATAAT [CACACA_site5896] | 8.8 ± 0.49 |
| AACAAAAATAATAATCAAATAAATAAATGAAAACAT [CACACA_negctrl_site456] | 8.71 ± 0.26 |
| AATCGTGTTCTGAATACACACTAATACAAATTTGTA [CACACA_site6058] | 8.66 ± 0.44 |
| ATAAATTTATCCAAGTGTACAAAGCTAACATTTTTT [XGTACX_site4399] | 8.58 ± 0.33 |
| CATCCTATTACTTGGTGTACTATTTTATATTGAATA [XGTACX_site1050] | 8.71 ± 0.29 |
| ATAAACAAGACGCAACAAAGTAGAAATTAAAAATAA [CACACA_negctrl_site345] | 8.8 ± 0.38 |
| AAAAATGGAATTATCTGTACATATATAGTTTTTAAA [XGTACX_site5580] | 8.26 ± 0.38 |
| GTTTATAAAATAAGAAGTACTTTATGAGAACCATAT [XGTACX_site5789] | 8.66 ± 0.45 |
| TGGTACCTTACTTTTACACACTTTTTTTTTTTTTTT [CACACA_site1557] | 8.64 ± 0.61 |
| CCATTTTAAATATGCACACAGATGCACTAACACATT [CACACA_site5099] | 9.1 ± 0.19 |
